# According to the supplement of paper PMC12067093, “Discovery and optimisation of a covalent ligand for TRIM25 and its application to targeted protein ubiquitination” (Chemical Science, 2025):
# Targets with the largest changes are over-represented here; the source holds about 21,000 in all.
# Compound: CC1Cc2ccccc2N1C(=O)C1CCCN(C1)C(=O)CCl (mixture of isomers) [TRIM25 ligand 11 (diastereomer mixture)]
# Assay: probe-labelled cysteine peptide fold change vs DMSO (competition) (log2 fold change); higher = less target engagement (more negative = stronger competition)
# Settings: 10 µM; THP-1; incubation time: 4 h
# 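Note: competitive chemoproteomic profiling in live THP-1 cells with an iodoacetamide desthiobiotin (IA-DTB) probe, comparing probe-labelled peptide intensities in compound-treated cells against DMSO-treated controls.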
# UniProt Q8N1F8, sequence (Q8N1F8 whole entry, looked up): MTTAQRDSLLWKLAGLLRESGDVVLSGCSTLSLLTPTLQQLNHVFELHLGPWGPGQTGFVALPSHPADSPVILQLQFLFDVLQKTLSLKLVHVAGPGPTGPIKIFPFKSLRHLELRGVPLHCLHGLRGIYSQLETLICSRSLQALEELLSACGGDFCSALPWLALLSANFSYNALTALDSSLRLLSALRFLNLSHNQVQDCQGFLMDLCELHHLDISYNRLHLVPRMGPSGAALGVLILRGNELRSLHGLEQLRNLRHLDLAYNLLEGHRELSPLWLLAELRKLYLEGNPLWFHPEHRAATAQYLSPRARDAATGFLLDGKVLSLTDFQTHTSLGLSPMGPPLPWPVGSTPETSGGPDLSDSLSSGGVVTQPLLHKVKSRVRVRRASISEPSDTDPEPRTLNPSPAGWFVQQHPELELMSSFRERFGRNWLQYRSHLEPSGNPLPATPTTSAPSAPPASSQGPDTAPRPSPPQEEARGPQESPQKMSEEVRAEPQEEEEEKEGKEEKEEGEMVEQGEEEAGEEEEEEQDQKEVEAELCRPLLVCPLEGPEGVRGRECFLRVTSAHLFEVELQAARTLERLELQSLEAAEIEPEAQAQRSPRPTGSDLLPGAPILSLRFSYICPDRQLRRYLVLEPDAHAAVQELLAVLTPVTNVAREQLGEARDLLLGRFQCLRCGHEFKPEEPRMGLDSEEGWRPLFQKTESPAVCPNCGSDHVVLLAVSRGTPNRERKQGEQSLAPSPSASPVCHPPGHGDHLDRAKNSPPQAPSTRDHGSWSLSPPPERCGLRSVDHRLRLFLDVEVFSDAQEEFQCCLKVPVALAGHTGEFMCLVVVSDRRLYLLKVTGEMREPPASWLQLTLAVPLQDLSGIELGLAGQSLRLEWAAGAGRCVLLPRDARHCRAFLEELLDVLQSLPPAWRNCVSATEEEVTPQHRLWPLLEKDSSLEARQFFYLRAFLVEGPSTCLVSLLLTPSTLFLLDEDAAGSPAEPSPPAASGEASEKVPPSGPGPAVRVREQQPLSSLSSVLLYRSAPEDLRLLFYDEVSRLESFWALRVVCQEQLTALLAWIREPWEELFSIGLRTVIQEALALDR
target,measurement,value
STK11IP_Q8N1F8_918_NCVSATEEEVTPQHR (UniProt Q8N1F8),probe-labelled cysteine peptide fold change,0.213
